Test results published in PMC5625047.
No constants are given. Whether binding was seen depends on the method and setting. For part of these data: Binding seen in cells or lysates may run through a third protein. Some binding calls cover weakened binding; strength is not graded here. Sequences can lack the tags named with a protein. Blank lines part the entries; values can stand above or below the binder they belong to.

Chains of the proteins cited; added tags and fusions are not shown. Lines headed by an entry give the natural chain unless they say otherwise; changes in a name come on top.
UniProt Q16539: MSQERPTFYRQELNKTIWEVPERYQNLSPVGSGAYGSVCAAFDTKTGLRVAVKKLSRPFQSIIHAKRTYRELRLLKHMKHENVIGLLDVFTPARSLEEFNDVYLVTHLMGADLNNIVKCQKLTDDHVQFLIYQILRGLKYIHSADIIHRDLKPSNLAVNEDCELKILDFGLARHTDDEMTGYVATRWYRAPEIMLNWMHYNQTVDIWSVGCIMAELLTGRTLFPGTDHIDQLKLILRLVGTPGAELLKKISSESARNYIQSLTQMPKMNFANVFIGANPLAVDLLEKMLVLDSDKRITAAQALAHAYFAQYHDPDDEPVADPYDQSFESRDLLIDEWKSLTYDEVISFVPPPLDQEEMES

Key:
[1] = biological target: FLAG-tagged p38α C162S (HEK293) (UniProt Q16539); test: non-reducing SDS-PAGE with immunoblot; HEK293 cells overexpressing FLAG-p38α and/or HA-MKK3, 10, 50 or 100 μM H2O2 for 10 min (also with 2 μM auranofin), harvested in SDS sample buffer with 100 μM maleimide; shows only the disulfide-linked complex
[2] = biological target: FLAG-tagged p38α C119S (HEK293) (UniProt Q16539); test: as above
[3] = biological target: FLAG-tagged p38α C119S/C162S (HEK293) (UniProt Q16539); test: as above
[4] = biological target: FLAG-tagged WT p38α (HEK293) (UniProt Q16539); test: as above
[5] = biological target: FLAG-tagged p38α C119S/C162S (HEK293) (UniProt Q16539); test: co-IP; HEK293 cells, 100 μM H2O2; anti-FLAG M2 affinity gel overnight at 4 °C, 50 mM Tris-HCl pH 7.4, 150 mM NaCl, 1% Triton X-100; precipitates on non-reducing SDS-PAGE, immunoblot for the dimer
[6] = biological target: FLAG-tagged WT p38α (HEK293) (UniProt Q16539); test: as above
[7] = biological target: T1, HA-tagged MKK3 (HEK293), P46734; test: non-reducing SDS-PAGE with immunoblot; HEK293 cells overexpressing FLAG-p38α and/or HA-MKK3, 10, 50 or 100 μM H2O2 for 10 min (also with 2 μM auranofin), harvested in SDS sample buffer with 100 μM maleimide; shows only the disulfide-linked complex; conditions: remark: other sources report otherwise
T1 chain: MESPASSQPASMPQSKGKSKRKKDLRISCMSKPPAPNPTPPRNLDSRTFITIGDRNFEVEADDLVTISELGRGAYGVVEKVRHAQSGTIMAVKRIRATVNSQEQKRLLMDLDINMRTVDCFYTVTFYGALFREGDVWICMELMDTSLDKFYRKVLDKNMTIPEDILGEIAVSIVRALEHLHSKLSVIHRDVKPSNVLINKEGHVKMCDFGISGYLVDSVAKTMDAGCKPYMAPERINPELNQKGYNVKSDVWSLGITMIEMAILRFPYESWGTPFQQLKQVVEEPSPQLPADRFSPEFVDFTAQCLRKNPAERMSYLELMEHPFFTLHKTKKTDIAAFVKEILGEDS

[8] = biological target: FLAG-tagged WT p38α (H9C2) (UniProt Q16539); test: non-reducing SDS-PAGE with immunoblot; H9C2 cells, native or transfected, simulated ischemia 5-40 min and simulated reperfusion 2.5-40 min, harvested in SDS sample buffer with 100 μM maleimide; shows only the disulfide-linked complex
[9] = biological target: FLAG-tagged p38α C119S/C162S (H9C2) (UniProt Q16539); test: as above

- binding [1]: binds
- binding [2]: binds
- binding [3]: no binding
- binding [4]: binds
- binding [5]: no binding
- binding [6]: binds
B1: HA-tagged MKK3 (HEK293) (protein, UniProt P46734 1-347)
chain: MESPASSQPASMPQSKGKSKRKKDLRISCMSKPPAPNPTPPRNLDSRTFITIGDRNFEVEADDLVTISELGRGAYGVVEKVRHAQSGTIMAVKRIRATVNSQEQKRLLMDLDINMRTVDCFYTVTFYGALFREGDVWICMELMDTSLDKFYRKVLDKNMTIPEDILGEIAVSIVRALEHLHSKLSVIHRDVKPSNVLINKEGHVKMCDFGISGYLVDSVAKTMDAGCKPYMAPERINPELNQKGYNVKSDVWSLGITMIEMAILRFPYESWGTPFQQLKQVVEEPSPQLPADRFSPEFVDFTAQCLRKNPAERMSYLELMEHPFFTLHKTKKTDIAAFVKEILGEDS

- binding [7]: no binding
B2: HA-tagged MKK3 (HEK293), P46734 1-347 (protein)
chain: MESPASSQPASMPQSKGKSKRKKDLRISCMSKPPAPNPTPPRNLDSRTFITIGDRNFEVEADDLVTISELGRGAYGVVEKVRHAQSGTIMAVKRIRATVNSQEQKRLLMDLDINMRTVDCFYTVTFYGALFREGDVWICMELMDTSLDKFYRKVLDKNMTIPEDILGEIAVSIVRALEHLHSKLSVIHRDVKPSNVLINKEGHVKMCDFGISGYLVDSVAKTMDAGCKPYMAPERINPELNQKGYNVKSDVWSLGITMIEMAILRFPYESWGTPFQQLKQVVEEPSPQLPADRFSPEFVDFTAQCLRKNPAERMSYLELMEHPFFTLHKTKKTDIAAFVKEILGEDS

- binding [8]: binds
- binding [9]: no binding
B3: HA-tagged MKK3 (H9C2) (protein, UniProt P46734 1-347)
chain: MESPASSQPASMPQSKGKSKRKKDLRISCMSKPPAPNPTPPRNLDSRTFITIGDRNFEVEADDLVTISELGRGAYGVVEKVRHAQSGTIMAVKRIRATVNSQEQKRLLMDLDINMRTVDCFYTVTFYGALFREGDVWICMELMDTSLDKFYRKVLDKNMTIPEDILGEIAVSIVRALEHLHSKLSVIHRDVKPSNVLINKEGHVKMCDFGISGYLVDSVAKTMDAGCKPYMAPERINPELNQKGYNVKSDVWSLGITMIEMAILRFPYESWGTPFQQLKQVVEEPSPQLPADRFSPEFVDFTAQCLRKNPAERMSYLELMEHPFFTLHKTKKTDIAAFVKEILGEDS
